# In the supplement of paper PMC10338343:
# ± gives the standard deviation. The full ranking holds about 6,600 sequences; the median of “pre-steady-state target cleavage rate” is about 0.07, and the highest 2% start at about 0.72. The entries are a selection whose mix differs from that of the whole data set.
# Tested on: MIWI (PIWIL1) piRISC loaded with Kctd7 piRNA (30 nt)
# Assay: pre-steady-state target cleavage rate (min^-1); MIWI and MILI are mouse PIWI proteins and EfPiwi is from a freshwater sponge; tags in brackets are library labels; higher = faster piRNA-guided slicing of the target
# Details: guide: Kctd7 piRNA 5'p-UGUUAAUCUCUCAGAGAAGGUGACAGUGAU; auxiliary factor: 500 nM mouse GTSF1
# In short: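 In this Cleave-'n-Seq assay, uncleaved targets were sequenced and normalised to depth and to weakly complementary targets. They came from a transcribed, DNA-blocked target RNA library […] mixed with 1 nM active affinity-purified piRISC carrying one synthetic guide, with or without 500 nM GTSF1 partner protein, in HEPES–potassium acetate buffer at 33 °C for 0–8 or 0–960 min. After three trials were pooled and k3 was capped at 0.0001 min^-1, the pre-steady-state cleavage rate was obtained from a burst-and-steady-state fit.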
# 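Further: 1 nM active piRISC with 0.1 nM target library at 33 °C single turnover.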
row,Sequence,pre-steady-state target cleavage rate
1,UAGUGACAGACCUACUCUGAGAGAUUAUCA,0.0129 ± 0.0039
2,UACACUGUCUGGUUCUCUGAGAGAUUAACA,0.127 ± 0.013
3,UACACUGUCACAUUCUCUGAGAGAUUAACA,0.676 ± 0.036
4,UAGUGACAGUCCUUCUCUGACAGAUUAACA,0.0132 ± 0.0036
5,UAGUGACAGUCCUUCUCUGAGAGAAUUAACA,0.0106 ± 0.0025
6,UAGUGAGUCACCUUCUCUGAGAGAUUUACA,0.215 ± 0.029
7,UAGUGACAGUCCUUCUCUGAGUCUAAUUGA [g10:g20:cont:t1A],< 0.0001
8,UACACUGUCACCUACUCUGAGAGAUUUACA,0.368 ± 0.059
9,AUCACUGUCACCUUCUCUGUGAGAUUAACA,0.309 ± 0.017
10,UACACUGUCUCCUUCUCUGAGAGAUUUUGA,0.0639 ± 0.021
11,UAGUGACAGACCUUGUCUGAGAGAUUAUCA,0.0133 ± 0.0074
12,AUCAGACUCACCUUCUCUGAGAGAUUUUGA,0.0093 ± 0.0036
13,UAGUGACAGACCAUCUCUGAGAGAUUAUCA,0.00822 ± 0.0029
14,UUCACUGUCAGCCUUCUCUGAGAGAUUAACA,0.292 ± 0.026
15,UAGACUGUCACCUUCAGUGAGAGAUUAAGA,0.0193 ± 0.0072
16,UUCACUGUCACCUUCUCUGAGAGAGUAACA,0.228 ± 0.037
17,UAGUCUGUCACCUUCUCUGAGAGAUGUAACA,0.332 ± 0.044
18,UAGUGAGUCACCUUCUCUGAGAGAUUUUCA,0.137 ± 0.027
19,UAGACUGUCACCUAGUCUGAGAGAUUAACA,0.517 ± 0.035
20,UAGUGACAGUGGAAGAGACUCUCAUUAACC [g2:g7:cont:t1C],< 0.0001
21,UACACUGUCAGGUUCUCUGAGAGAUUAACA,0.477 ± 0.036
22,UACACUGUCAACUUCUCUGAGAGAUUAACA,0.796 ± 0.035
23,UAGUGACACACCUUCUCUGAGAGUUUAUCA,0.015 ± 0.0071

row,Sequence,pre-steady-state target cleavage rate
1,UAGUGAGUCACGUUCUCUGAGAGAUAAACA,0.237 ± 0.022
2,UAGUGUCGUCACCUUCUCUGAGAGAUUAACA,0.646 ± 0.043
3,UAGACUGUCAGCUUGUCUGAGAGAUUAACA,0.596 ± 0.034
4,UAGUGUCACACCUUCUCUGAGAGAUUAAGA,0.245 ± 0.044
5,UACACUGUCACCUUCUCAGAGAGUUUAACA,0.269 ± 0.061
6,UAGUGACAGACCCUUCUCUGAGAGAUUAACA,0.0893 ± 0.016
7,UUCACUCUCACCUUCUCUGAGUGAUUAACA,0.0282 ± 0.0042
8,UAGUGAGUCACCUUCUCUGAGAGAUUAACA [g2:g24:cont:t1A],0.654 ± 0.038
9,UAGACUGUCACCUUCUCUGAGAGAUUAACCA,0.648 ± 0.054
10,UUCACUGUCACCUUCUCUGACAGAUUAACA,0.372 ± 0.032
11,UACACAGUCACCUACUCUGAGAGAUUAACA,0.697 ± 0.032
12,UAGUGACUCUCCUUCUCUGAGUGAUUAACA,0.00757 ± 0.0019
13,UUCACUGUCACCUUCUCUGUCAGAUUAAGA,0.00879 ± 0.0047
14,UAGAGUGUCACCUUCUCUGAGAGUUUAACA,0.464 ± 0.069
15,UUCACUGUCACCUUGUCAGAGAGAUUAACA,0.158 ± 0.02
16,AUCACUGUCACCUUCUCUGAGUGAUUAUCA,0.0511 ± 0.015
17,UAGUGUCUCACCUUCUCUGAGAGAUUUACA,0.279 ± 0.04
18,UAGUGACAGAUCCUUCUCUGAGAGAUUAACA,0.248 ± 0.021
19,UAGUGACUGACCUUCUCUGAGAGAUUAACA,0.363 ± 0.037
20,UAGACUGUGACCUUGUCUGAGAGAUUAACA,0.13 ± 0.022
21,AUCACAGUCACCUUCUCUGAGAGUUUAACA,0.505 ± 0.087
22,UAGUCUGUCUCCUUCACUGAGAGAUUAACA,0.274 ± 0.019
23,UUCACUGUCACCUUCUCUGACAGUUUAACA,0.0439 ± 0.0095

row,Sequence,pre-steady-state target cleavage rate
1,UAGUGAGUCACCUUCUCUGUGAGAUUAUGA,0.0377 ± 0.011
2,UAGUGACACAGCUUCUCUGAGAGAUUAUCA,0.0896 ± 0.016
3,UAGUGUGUCACCUUCUCUGAGAGAUCUAACA,0.435 ± 0.085
4,AUCACUGUCACCUUCUCUGUGAGAUUAAGA,0.0958 ± 0.016
5,AUCACAGUCACCUUCUCUGAGAGAUUUUGA,0.142 ± 0.043
6,UAGUGACAGUGCUUCUCUGAGAGAGUUAACA,0.00888 ± 0.0017
7,UUCACUGUCACCUUCAUCUGAGAGAUUAACA,0.255 ± 0.048
8,AUCUCUGUCUCCUUCUCUGAGAGAUUAACA,0.637 ± 0.042
9,UACACUGACACCUUCUCUGAGAGAUUAUGA,0.0627 ± 0.027
10,UUCACUGUCACCUUCUCUGAGAGAUUGACA,0.267 ± 0.043
11,UACACAGUCACCUUCUCUGAGAGAUUAAGA,0.112 ± 0.024
12,UACACUGUCACGUUCUCAGAGAGAUUAACA,0.144 ± 0.011
13,UAGUGACAGUGGAACUCUGAGAGUAUAACA,< 0.0001
14,UUCACUGUCACCUUCACUGAGAGAUUAACA,0.552 ± 0.031
15,AUCUGUGUCACCUUCUCUGAGAGAUUAUGA,0.0903 ± 0.016
16,UAGUGUGUCACCUUCUCCUGAGAGAUUAACA,0.124 ± 0.042
17,UUCACUGUCACCUUCUCUCAGAGAUUAACA,0.113 ± 0.01
18,UAGUGUGUCACCUUCUGUGAGAGAUUAUCA,0.0267 ± 0.0062
19,UAGUGAGUCACCUUUCUCUGAGAGAUUAACA,0.382 ± 0.034
20,UUCACUGUCACCAUCUCUGAGAGAUAAACA,0.308 ± 0.037
21,UACACUGUCAGCUUCUCUGAGUGAUUAACA,0.0155 ± 0.0024
22,UAGUGUCUCACCUACUCUGAGAGAUUAACA,0.434 ± 0.031
23,UAGUGACUCACCUUCUCUGAGAGAUAUAGA,0.00979 ± 0.0032

row,Sequence,pre-steady-state target cleavage rate
1,AUCACUGUCACCUUCUGAGAGAGAUUAUGA,0.00906 ± 0.0048
2,UAGACGUCACCUUCUCUGAGAGAUUAACA,0.677 ± 0.035
3,UAGUGACACACCUUCUCUGAGUCUUUAACA,< 0.0001
4,UUCACUGUGAGCUUCUCUGAGAGAUUAACA,0.515 ± 0.024
5,UUCACUGUCACCUUCUCUGUGACAUUAACA,0.0436 ± 0.0063
6,UACACUGUCACCUACUGUGAGAGAUUAACA,0.332 ± 0.024
7,UAGUCUGUCACCUUCUCUGAGUGAUUAAGA,0.00589 ± 0.0033
8,UACACUGUCACCUUCUCUGAGACAUUUACA,0.0625 ± 0.021
9,AUCACUGACACCUUCUCUGAGAGAUAUUGA,0.0703 ± 0.02
10,UAGUCUGUCACCUUCUCUGGAGAUUAACA,0.22 ± 0.019
11,UAGUGUGUCACGUUCUCUGAGACAUUAACA,0.0499 ± 0.0086
12,UAGCCUGUCACCUUCUCUGAGAGAUUAACA,0.752 ± 0.056
13,UAGUGACACACCUUCUCUCAGAGAUUAACA,0.0292 ± 0.0066
14,UACACUGUGACCUUCUCUGAGAGAUUAUCA,0.135 ± 0.022
15,UAGUCUGUCACCUGCUCUGAGAGAUUAACA,0.585 ± 0.03
16,UAGUGACACACCUUCUCUGAGAGAUGUAACA,0.23 ± 0.032
17,UAGUGACUCACCUUCUCUGAGAGUUUAAGA,0.0761 ± 0.016
18,UAGACUGUCACCUUCACUGAGAGAUAAACA,0.266 ± 0.038
19,UAGUGACUCACCUUCUCCGAGAGAUUAACA,0.351 ± 0.07
20,UAGUGACUCUCCUACUCUGAGAGAUUAACA,0.0149 ± 0.0023
21,UAGACUGUCACCUUCUCACUGAGAUUAACA,0.00417 ± 0.0022
22,UUCACUGACAGCUUCUCUGAGAGAUUAACA,0.587 ± 0.03
